# Hit rate of the full screen: of about 310,000 compounds, about 2,200 (0.71%) showed an effect of 50% or more. Effects have a minus sign here. This is one part of the list.
# Molecular target: human ether-à-go-go-related gene (hERG) potassium channel (human, UniProt Q12809)
# Assay: primary screen, population patch clamp on CHO cells stably expressing hERG
# Sequence of human ether-à-go-go-related gene (hERG) potassium channel (Q12809 whole entry, looked up): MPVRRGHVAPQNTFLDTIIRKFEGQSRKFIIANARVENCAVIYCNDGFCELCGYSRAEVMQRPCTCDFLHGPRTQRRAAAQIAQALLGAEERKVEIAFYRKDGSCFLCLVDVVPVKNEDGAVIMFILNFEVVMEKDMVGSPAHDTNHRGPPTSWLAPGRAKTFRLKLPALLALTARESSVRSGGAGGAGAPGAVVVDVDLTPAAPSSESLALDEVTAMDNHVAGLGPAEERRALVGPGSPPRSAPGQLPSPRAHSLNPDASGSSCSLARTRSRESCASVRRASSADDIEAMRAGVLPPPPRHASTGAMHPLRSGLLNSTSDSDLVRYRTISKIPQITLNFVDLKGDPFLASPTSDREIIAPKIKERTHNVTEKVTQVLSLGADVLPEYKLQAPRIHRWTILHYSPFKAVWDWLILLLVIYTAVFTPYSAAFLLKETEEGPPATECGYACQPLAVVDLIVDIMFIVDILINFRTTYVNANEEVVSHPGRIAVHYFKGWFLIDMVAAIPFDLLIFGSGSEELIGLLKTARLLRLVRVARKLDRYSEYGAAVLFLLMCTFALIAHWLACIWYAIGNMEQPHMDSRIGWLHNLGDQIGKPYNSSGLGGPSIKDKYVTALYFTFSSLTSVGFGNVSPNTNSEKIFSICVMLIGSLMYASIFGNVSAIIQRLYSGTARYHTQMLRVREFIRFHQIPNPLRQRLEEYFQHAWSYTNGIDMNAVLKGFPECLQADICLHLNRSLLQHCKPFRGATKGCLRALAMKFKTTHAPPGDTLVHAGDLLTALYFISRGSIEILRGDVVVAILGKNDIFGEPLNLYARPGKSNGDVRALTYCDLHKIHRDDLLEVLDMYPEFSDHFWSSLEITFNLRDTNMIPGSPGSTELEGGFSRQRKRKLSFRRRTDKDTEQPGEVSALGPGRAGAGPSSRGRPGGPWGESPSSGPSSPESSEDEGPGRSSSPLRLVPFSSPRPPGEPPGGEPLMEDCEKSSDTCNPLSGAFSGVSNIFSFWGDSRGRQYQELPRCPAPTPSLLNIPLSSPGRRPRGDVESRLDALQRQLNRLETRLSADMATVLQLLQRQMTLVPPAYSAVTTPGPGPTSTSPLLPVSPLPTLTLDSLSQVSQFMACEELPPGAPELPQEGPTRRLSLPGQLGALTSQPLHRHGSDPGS
row,SMILES,"hERG current change (%, negative = inhibition) at 1uM [%]"
1,CCN(CC)c1ccc(C2C3CCCCC3(O)CCN2CC(=O)N2CCCCC2)cc1 (stereo not shown),10.7
2,COc1cc(CC(=O)OCc2cccc([N+](=O)[O-])c2)cc(OC)c1OC,9.63
3,CSc1ccc(CC(=O)N2CCC(n3nccc3NC(=O)C3CC3)CC2)cc1,10.1
4,Cc1ccc2oc(=O)n(CC(=O)c3ccc(F)cc3)c2c1,9.6
5,N#CCCn1cc(/C=C/C(=O)O)c(-c2ccc(F)cc2)n1,4.25
6,CCOC(=O)c1c(SC)n(-c2ccccc2)c(=S)n(-c2ccccc2)c1=O,13.8
7,CCN(CC(=O)NC(=O)Nc1ccccc1F)Cc1ccccc1,13.2
8,Cc1ccc(-c2cc(C(=O)NCCN3CCOCC3)c3ccccc3n2)o1,9.3
9,CCc1c(C)sc(NC(=O)c2ccco2)c1C(=O)N1CCCCC1,-1.15
10,Cc1nn(C(C)(C)C)c(OC(=O)c2cccs2)c1S(=O)(=O)c1ccccc1,-3.07
11,CC(=O)OC1=C(O)C(=O)c2ccccc2C1=O,4.37
12,COc1ccc(CN(CC(=O)NCc2ccc(F)cc2)C(=O)CCC(=O)Nc2ccccn2)cc1,0.936
13,COc1ccc(-c2nnc(SCC#N)o2)cc1,7.8
14,O=C(Nc1ccc(-c2nnc3n2CCCCC3)cc1)c1cc2ccccc2o1,-22.4
15,Cc1ccc(NC(=O)CSCC(=O)N2CCN(Cc3ccc4c(c3)OCO4)CC2)cc1,0.61
16,O=C(Nc1ccccc1)Nc1nc(-c2ccc(F)c(F)c2)cs1,17.8
17,CCCSc1cc(Cl)nc(N)n1,5.31
18,O=C1[C@H]2[C@@H](c3ccc(F)cc3)N3C(=O)N(c4cccc(Br)c4)C(=O)[C@@]3(Cc3ccccc3)[C@H]2C(=O)N1C1CCCCC1,4.11
19,O=C(CCCSc1nc2ccccc2[nH]1)Nc1nnc(C2CC2)s1,8.8
20,C=CCc1cc(Cl)ccc1OCCN(C)C.O=C(O)C(=O)O,-1.86
21,O=C1CCCC2=C1C(c1ccccc1)CC(=O)N2c1ccccc1 (stereo not shown),4.51
22,CC(C)C[C@H](NC(=O)[C@@H]1Cc2c([nH]c3ccccc23)C2c3ccccc3C(=O)N21)C(=O)NCC1CCCO1 (stereo partly shown),-1.54
23,O=C(CCn1c(=O)oc2ccccc21)NCCC1=CCCCC1,13

row,SMILES,"hERG current change (%, negative = inhibition) at 1uM [%]"
1,CN1CCC(N(C)C(=O)COc2ccc(S(=O)(=O)N3CCOCC3)cc2)CC1,0.596
2,Cc1ccc(NC(=O)C(SCC(=O)O)c2ccccc2)cc1C (stereo not shown),2.37
3,Cl.ClCCNc1nc2ccc(Cl)cc2[nH]1,13.3
4,COc1ccc(OC)c(NC(=O)CCN2CCN(Cc3ccccc3)CC2)c1.Cl,-2.13
5,Cc1nn(C)cc1/C=C1\SC(=S)NC1=O,9.1
6,CCCCn1c(O)c(C(CC)=NCCN2CCOCC2)c(=O)[nH]c1=O,2.73
7,CC(=O)c1ccc(OCC(O)CN2CC(C)OC(C)C2)cc1.Cl (stereo not shown),6.96
8,Cc1c(NC(=S)NC(=O)c2ccc(COc3ccccc3)cc2)cccc1C(=O)O,11.1
9,COc1cccc(NC(=O)N2CCCc3ccccc32)c1,13.9
10,CCCCCc1ccc(-c2cn(CC3CCCCC3)nn2)cc1,12.5
11,Cc1ccc(NC(=O)Cn2nc(C)c(S(=O)(=O)N(C)C)c2C)cc1C,6.76
12,Cc1oc(-c2cccs2)nc1CN1CCN(C2CCCC2)C(CCO)C1 (stereo not shown),6.8
13,C[C@@H](CN=[N+]=[N-])CN1CC[C@H](NC(=O)OCc2ccccc2)CCC1=O,-0.382
14,Cc1ccc(C)n1CCN1CCN(S(=O)(=O)c2ccc(F)cc2F)CC1,10.8
15,CCC(C)(C)C1CCC2(CC1)NC(=O)N(CC(=O)N1CCN(C(=O)c3ccco3)CC1)C2=O (stereo not shown),6.27
16,C=CCn1c(=O)c2ccccc2n2c(SCC(=O)O)nnc12,16.3
17,Cc1ccc(N=Nc2c(C)[nH]n(C(N)=S)c2=O)cc1,9.85
18,COc1cccc(NC(=O)c2cncs2)c1,15.4
19,COC(=O)N/N=C\C=C\c1ccc2c(c1)OCO2,5.62
20,CCCc1nc2ccccc2c(C(=O)O)c1CC,3.99
21,COc1cccc(N2CCN(C(=O)CC(C)(C)CC3=NS(=O)(=O)c4ccccc4N3)CC2)c1,9.19
22,Cc1ccc2ccccc2c1COC(=O)c1nonc1N,4.04
23,N#CCC(=O)N/N=C/c1cc([N+](=O)[O-])ccc1N1CCOCC1,-2.66

row,SMILES,"hERG current change (%, negative = inhibition) at 1uM [%]"
1,COc1cc(/C=C2\S/C(=N/S(=O)(=O)Cc3ccccc3)NC2=O)c([N+](=O)[O-])cc1OC,10.4
2,CNC(=O)C(C)NS(=O)(=O)c1ccc(F)cc1 (stereo not shown),10.5
3,CN(Cc1ccccc1F)C(=O)c1ccc2c(=O)n3c(nc2c1)CCC3,14.4
4,O=C(NC1CC1)c1ccc(CS(=O)c2ccc(Br)cc2)o1 (stereo not shown),13.8
5,CCSc1ccccc1C(=O)N=C1NC(=O)CC2C(=O)NCCN12 (stereo not shown),9.8
6,CC(=O)N1CCN(S(=O)(=O)c2cccc(C(=O)OCC(=O)N3CC(=O)Nc4ccccc43)c2)CC1,19
7,Clc1cccc(Cl)c1-c1noc(CN2CCOCC2)n1,12.6
8,Fc1ccccc1CSc1nc2ccccc2[nH]1,0.961
9,Cc1nn2cc(-c3ccccc3)nc2[nH]c1=O,24.2
10,COc1ccc(C2CC(=O)C3=C(C2)Nc2ccccc2N(C(=O)C2CC2)C3c2cccnc2)cc1OC (stereo not shown),6.25
11,CCn1cc(CN2CCCC(C(=O)Nc3ccc(-c4nc5ccccc5[nH]4)cc3)C2)c(C)n1 (stereo not shown),0.0718
12,CCOC(=O)N1CCN(Cc2nc3ccc([N+](=O)[O-])cc3c(=O)n2-c2ccc(OC)cc2OC)CC1,-0.993
13,CS(=O)(=O)N1CCN(c2ccccc2NC(=O)c2cccnc2)CC1,-3.63
14,COC(=O)CCC(=O)NC(=S)Nc1c(C)cccc1C,6.22
15,Cc1ccc(CN2C(=O)C(C)(C)Oc3ccc(C(=O)N4CCCCC4)cc32)cc1,7.02
16,COc1ccc(CSc2nc3nc(C)cc(C)n3n2)cc1F,4.03
17,CC1CCCCC1NC(=O)CSc1nnc(CNC(=O)c2ccccc2)n1C (stereo not shown),10.8
18,O=C(NC(=S)Nc1ccc(S(=O)(=O)N2CCCC2)cc1)C1CCC1,11.8
19,Cc1ccc(C(=O)NCC(=O)NCC(=O)OCC(=O)c2cccs2)cc1,7.78
20,CN1CCCCCC1=Nc1ccc([N+](=O)[O-])cc1.Cl,4.34
21,Cc1ccccc1SCC(=O)N1CCN(c2ccc(C(F)(F)F)cn2)CC1,-13.3
22,COCCCNCCCCOc1ccc(C)cc1[N+](=O)[O-].O=C(O)C(=O)O,-4.56
23,CCCCOC(=O)C(C#N)c1nc2ccccc2nc1N1CCN(Cc2ccc3c(c2)OCO3)CC1 (stereo not shown),12.4

row,SMILES,"hERG current change (%, negative = inhibition) at 1uM [%]"
1,Br.Cc1csc(=Nc2ccccc2)n1C,10.1
2,CS(=O)(=O)c1ccccc1C(=O)N(CCc1ccccc1)Cc1ccccc1,9.2
3,O=C(N1CCOCC1)N1CCN(S(=O)(=O)c2ccc(Cl)cc2)C1,18.2
4,CN(C)c1ccc(/C=N/NC(=O)CNC(=O)c2ccncc2)cc1,12.7
5,O=C(O)C1CCN1C1CCCCC1 (stereo not shown),11.3
6,O=C(O)CC(C(=O)Nc1ccc(Cl)c(Cl)c1)C1CCCO1 (stereo not shown),4.45
7,CCCNC(=O)c1nc(C)c(C)nc1C(=O)Nc1cccc(Cl)c1,4.07
8,O=Cc1ccc(OC(=O)c2cc(Cl)nc3ccccc23)cc1,13.5
9,O=C(COC(=O)c1ccccc1O)Nc1cccc2ccccc12,2.17
10,CC(C)(Cc1ccc(O)cc1)NC(=O)SCc1ccccc1,6.63
11,CC(=O)c1ccc(N/C=C/C(=O)c2ccc(Br)cc2)cc1,14.3
12,O=S(=O)(O)c1nc2ccccc2n1Cc1ccc(Cl)cc1Cl,7.15
13,O=C(OC1CCOC1=O)C1CCN(S(=O)(=O)c2ccccc2)CC1 (stereo not shown),8.34
14,CN1C[C@@H]2C[C@@H](c3ccc(C#CC(C)(C)O)s3)N3CCC[C@@]23C1=O,13.8
15,Cc1cccc(NC(=O)CCNC(=O)c2ccco2)c1,14.5
16,COc1ccc2c(c1)sc(N)[n+]2Cc1cc(C)cc2cccnc12.[Br-],-26.5
17,CCOc1ccc(NC(=O)N2CCC(c3nc4ccccc4[nH]3)CC2)cc1,-5.11
18,O=C(CN1CCN(S(=O)(=O)c2ccccc2[N+](=O)[O-])CC1)NC(=O)NCc1ccco1,17.9
19,CCOC(=O)CSc1nc(C(C)C)nc2ccccc12,5.05
20,CCCC(=O)Nc1nnc(/C=C/c2ccccc2)s1,10.1
21,CCOC(=O)c1c(NC(C)=O)no[n+]1[O-],4.59
22,Cc1ccc2nsnc2c1S(=O)(=O)N1CCCC1C(=O)O (stereo not shown),18.9
